Laboratory results as given in the supplement of paper PMC4604168 (melanoma cell lines).
This is one part of the list. Repeats are few or missing, and single values can be far off.

How the values were obtained:
Assay in all cases: cell count relative to DMSO control; melanoma cells; higher = more viable cells
Conditions in all cases: library dose: low library concentration; 72 h
WM115 = tested on: WM115
WM1716 = tested on: WM1716
WM1745 = tested on: WM1745
WM3526 = tested on: WM3526
WM3619 = tested on: WM3619
WM451Lu = tested on: WM451Lu
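Further: cell number obtained by counting DAPI-stained nuclei in high-throughput microscope images with image analysis software, screen run in 1,536-well plates.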

SMILES | cell count (WM115) [%] | cell count (WM1716) [%] | cell count (WM1745) [%] | cell count (WM3526) [%] | cell count (WM3619) [%] | cell count (WM451Lu) [%]
Cc1cc(Nc2cc(N3CCN(C)CC3)nc(/C=C/c3ccccc3)n2)n[nH]1 + Oc1cc(-c2nc(-c3ccccc3)[nH]c2-c2ccncc2)ccc1Cl [L779450] (first compound 0.04 µM, partner dose 0.2 µM) | 75 | 94.5 | 85.1 | 65.6 | 84 | 100
Cc1cn(-c2cc(NC(=O)c3ccc(C)c(Nc4nccc(-c5cccnc5)n4)c3)cc(C(F)(F)F)c2)cn1 [nilotinib] + O=C(O)c1ccc(-c2c[nH]c3ncc(-c4ccccc4)cc23)cc1C1CCCC1 [GSK650394] (first compound 0.2 µM, partner dose 0.16 µM) | 106 | 105 | 89.6 | 108 | 114 | 120
Cn1c(=O)n(-c2ccc(C(C)(C)C#N)cc2)c2c3cc(-c4cnc5ccccc5c4)ccc3ncc21 + COc1cc(N2CCC(N3CCN(C)CC3)CC2)ccc1Nc1ncc(Cl)c(Nc2ccccc2S(=O)(=O)C(C)C)n1 [NVP-TAE684] (first compound 0.004 µM, partner dose 0.08 µM) | 74.5 | 82.3 | 87.8 | 97.2 | 103 | 86.6
CC(C)C[C@H](NC(=O)[C@H](Cc1ccccc1)NC(=O)c1cnccn1)B(O)O [Bortezomib] + Oc1cc(-c2nc(-c3ccccc3)[nH]c2-c2ccncc2)ccc1Cl [L779450] (first compound 0.001 µM, partner dose 0.2 µM) | 73.8 | 35.7 | 66 | 74.7 | 19.5 | 130
Cc1cc(Nc2cc(N3CCN(C)CC3)nc(/C=C/c3ccccc3)n2)n[nH]1 + Cn1nnc2c(C(N)=O)ncn2c1=O [temozolomide] (first compound 0.04 µM, partner dose 2 µM) | 85.4 | 91.8 | 96.6 | 113 | 75 | 66.4
COc1ccc(C2=N[C@@H](c3ccc(Cl)cc3)[C@@H](c3ccc(Cl)cc3)N2C(=O)N2CCNC(=O)C2)c(OC(C)C)c1 [Nutlin-3] + COc1cc(Nc2ncc(F)c(Nc3ccc4c(n3)NC(=O)C(C)(C)O4)n2)cc(OC)c1OC [Tamatinib] (first compound 0.1 µM, partner dose 0.4 µM) | 69.8 | 88.8 | 76.8 | 75.8 | 101 | 94.2
Cn1c(=O)n(-c2ccc(C(C)(C)C#N)cc2)c2c3cc(-c4cnc5ccccc5c4)ccc3ncc21 + CCCS(=O)(=O)Nc1ccc(F)c(C(=O)c2c[nH]c3ncc(Cl)cc23)c1F [PLX4720] (first compound 0.004 µM, partner dose 0.08 µM) | 93.3 | 109 | 120 | 68.9 | 78.8 | 100
CC(C)C[C@H](NC(=O)[C@H](Cc1ccccc1)NC(=O)c1cnccn1)B(O)O [Bortezomib] + COc1ccc(COc2ccc(Cc3cnc(N)nc3N)cc2OC)cc1 [GW2580] (first compound 0.001 µM, partner dose 1 µM) | 105 | 40.8 | 70.8 | 99.7 | 43.5 | 80.7
COc1ccc(C2=N[C@@H](c3ccc(Cl)cc3)[C@@H](c3ccc(Cl)cc3)N2C(=O)N2CCNC(=O)C2)c(OC(C)C)c1 [Nutlin-3] + Cn1c(=O)n(-c2ccc(C(C)(C)C#N)cc2)c2c3cc(-c4cnc5ccccc5c4)ccc3ncc21 [NVP-BEZ235] (first compound 0.1 µM, partner dose 0.004 µM) | 78.6 | 83.2 | 104 | 76.2 | 97.7 | 102
Cc1cn(-c2cc(NC(=O)c3ccc(C)c(Nc4nccc(-c5cccnc5)n4)c3)cc(C(F)(F)F)c2)cn1 [nilotinib] + CN(NC(=O)CC(=O)NN(C)C(=S)c1ccccc1)C(=S)c1ccccc1 [STA4783] (first compound 0.2 µM, partner dose 0.006 µM) | 92.1 | 67 | 46.1 | 90.8 | 61.3 | 78.2
Cc1cn(-c2cc(NC(=O)c3ccc(C)c(Nc4nccc(-c5cccnc5)n4)c3)cc(C(F)(F)F)c2)cn1 [nilotinib] + O=C(O)[C@@H]1[O][Sb](=[O])([O][Sb]2(=[O])[O][C@H]([C@H](O)CO)[C@H](O)[C@H](C(=O)O)[O]2)[O][C@H]([C@H](O)CO)[C@@H]1O [stibogluconate] (first compound 0.2 µM, partner dose 2 µM) | 101 | 97 | 88.3 | 112 | 96 | 106
CC(C)C[C@H](NC(=O)[C@H](Cc1ccccc1)NC(=O)c1cnccn1)B(O)O [Bortezomib] + Cn1cncc1[C@@](N)(c1ccc(Cl)cc1)c1ccc2c(c1)c(-c1cccc(Cl)c1)cc(=O)n2C [tipifarnib] (first compound 0.001 µM, partner dose 0.01 µM) | 84.8 | 31.7 | 53.2 | 70.3 | 21.6 | 66.4
CC(C)C[C@H](NC(=O)[C@H](Cc1ccccc1)NC(=O)c1cnccn1)B(O)O [Bortezomib] + O=C1NC(=O)/C(=C/c2ccc(-c3ccc(F)cc3O)o2)S1 [AS252424] (first compound 0.001 µM, partner dose 1 µM) | 92.1 | 28.8 | 56.4 | 83.1 | 22 | 90
Cc1cn(-c2cc(NC(=O)c3ccc(C)c(Nc4nccc(-c5cccnc5)n4)c3)cc(C(F)(F)F)c2)cn1 [nilotinib] + COc1ccc(C2=N[C@@H](c3ccc(Cl)cc3)[C@@H](c3ccc(Cl)cc3)N2C(=O)N2CCNC(=O)C2)c(OC(C)C)c1 [Nutlin-3] (first compound 0.2 µM, partner dose 0.1 µM) | 106 | 90.4 | 94.3 | 83.9 | 97.4 | 107
Cc1cn(-c2cc(NC(=O)c3ccc(C)c(Nc4nccc(-c5cccnc5)n4)c3)cc(C(F)(F)F)c2)cn1 [nilotinib] + COc1cc2ncnc(Nc3ccc(Oc4ccccc4)cc3)c2cc1OC [SrcI1] (first compound 0.2 µM, partner dose 2 µM) | 99.3 | 138 | 87.5 | 88.7 | 94.8 | 103
Cc1cc(Nc2cc(N3CCN(C)CC3)nc(/C=C/c3ccccc3)n2)n[nH]1 + O=c1cc(-c2cccc3c2Sc2ccccc2S3)oc(N2CCOCC2)c1 [KU55933] (first compound 0.04 µM, partner dose 1 µM) | 91.2 | 106 | 98.6 | 101 | 102 | 100
Cn1c(=O)n(-c2ccc(C(C)(C)C#N)cc2)c2c3cc(-c4cnc5ccccc5c4)ccc3ncc21 + C=C(c1ccc(C(=O)O)cc1)c1cc2c(cc1C)C(C)(C)CCC2(C)C [Bexarotene] (first compound 0.004 µM, partner dose 2 µM) | 92.5 | 85.5 | 91.4 | 73.6 | 104 | 84.6
CC(C)C[C@H](NC(=O)[C@H](Cc1ccccc1)NC(=O)c1cnccn1)B(O)O [Bortezomib] + Nc1nc(F)nc2c1ncn2[C@@H]1O[C@H](CO)[C@@H](O)[C@@H]1O [fludarabine] (first compound 0.001 µM, partner dose 0.2 µM) | 98 | 35.8 | 90.2 | 39 | 22.8 | 44.4
Cn1c(=O)n(-c2ccc(C(C)(C)C#N)cc2)c2c3cc(-c4cnc5ccccc5c4)ccc3ncc21 + O=C(Nc1cccc(Cl)c1)Nc1ncc(CCNc2ncnc3ccsc23)s1 [SNS314] (first compound 0.004 µM, partner dose 0.0008 µM) | 61.9 | 99.2 | 86.1 | 78.3 | 90.5 | 84.2
CC(C)C[C@H](NC(=O)[C@H](Cc1ccccc1)NC(=O)c1cnccn1)B(O)O [Bortezomib] + C#Cc1cccc(Nc2ncnc3cc(OCCOC)c(OCCOC)cc23)c1 [erlotinib] (first compound 0.001 µM, partner dose 0.8 µM) | 108 | 32 | 30.9 | 85.5 | 11.2 | 84.4
Cn1c(=O)n(-c2ccc(C(C)(C)C#N)cc2)c2c3cc(-c4cnc5ccccc5c4)ccc3ncc21 + C[C@]1(c2nc3c(C(N)=O)cccc3[nH]2)CCCN1 [Veliparib] (first compound 0.004 µM, partner dose 1.4 µM) | 81.8 | 90.1 | 98.8 | 96 | 97.9 | 83.8
Cc1cn(-c2cc(NC(=O)c3ccc(C)c(Nc4nccc(-c5cccnc5)n4)c3)cc(C(F)(F)F)c2)cn1 [nilotinib] + CCN(CC)CCNC(=O)c1c(C)[nH]c(/C=C2\C(=O)Nc3ccc(F)cc32)c1C [sunitinib] (first compound 0.2 µM, partner dose 0.4 µM) | 108 | 131 | 91.6 | 102 | 135 | 105
Cc1cn(-c2cc(NC(=O)c3ccc(C)c(Nc4nccc(-c5cccnc5)n4)c3)cc(C(F)(F)F)c2)cn1 [nilotinib] + CCc1ccc(CCOc2ccc(CC3SC(=O)NC3=O)cc2)nc1 [pioglitazone] (first compound 0.2 µM, partner dose 2 µM) | 114 | 87.7 | 97.3 | 94.3 | 92.8 | 110
COc1ccc(C2=N[C@@H](c3ccc(Cl)cc3)[C@@H](c3ccc(Cl)cc3)N2C(=O)N2CCNC(=O)C2)c(OC(C)C)c1 [Nutlin-3] + CC(=O)c1c(C)c2cnc(Nc3ccc(N4CCNCC4)cn3)nc2n(C2CCCC2)c1=O [palbociclib] (first compound 0.1 µM, partner dose 0.04 µM) | 85.6 | 75.6 | 71.6 | 53.8 | 71.3 | 72.9
